# Assay results as given in PMC6919601, “Identification of Plasmodium dipeptidyl aminopeptidase allosteric inhibitors by high throughput screening” (PLoS ONE, 2019).
# Out of some 110,000 compounds screened, about 230 (0.21%) showed an effect of 50% or more. The list shows a part of the results.
# Target: DPAP1 (Plasmodium falciparum, UniProt Q8IIJ9)
# Test: primary screen, percent inhibition; read by cleavage of a fluorogenic dipeptide substrate; higher = more effect of the substance
# Design: species or system P. falciparum D10 trophozoite lysates; single well
# 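Also: 30 min substrate incubation versus DMSO and 10 µM JCP410 controls.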
# Sequence of DPAP1 (Q8IIJ9 whole entry, looked up): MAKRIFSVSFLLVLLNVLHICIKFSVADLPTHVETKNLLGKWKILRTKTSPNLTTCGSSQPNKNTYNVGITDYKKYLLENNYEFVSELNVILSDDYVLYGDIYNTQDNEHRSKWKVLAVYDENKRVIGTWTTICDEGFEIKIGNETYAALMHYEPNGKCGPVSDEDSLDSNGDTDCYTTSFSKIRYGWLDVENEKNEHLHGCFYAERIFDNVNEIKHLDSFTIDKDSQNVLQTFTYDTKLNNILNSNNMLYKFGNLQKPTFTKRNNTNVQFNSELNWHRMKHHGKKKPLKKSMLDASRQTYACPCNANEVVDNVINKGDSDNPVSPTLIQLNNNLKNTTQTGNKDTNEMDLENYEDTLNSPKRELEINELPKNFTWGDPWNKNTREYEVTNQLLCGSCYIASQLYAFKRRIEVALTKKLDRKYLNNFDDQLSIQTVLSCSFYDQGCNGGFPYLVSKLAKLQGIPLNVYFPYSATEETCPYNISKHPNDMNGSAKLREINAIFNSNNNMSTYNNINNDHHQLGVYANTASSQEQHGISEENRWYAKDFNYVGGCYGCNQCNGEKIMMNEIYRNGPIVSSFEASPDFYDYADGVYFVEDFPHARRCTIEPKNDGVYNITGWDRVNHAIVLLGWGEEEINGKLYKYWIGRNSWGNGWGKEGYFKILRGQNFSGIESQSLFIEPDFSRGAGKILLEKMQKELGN
row,Structure (SMILES),% Inhibition @ 10 uM
1,CCCCOc1ccccc1C1C2=C(O)CCCC2=NC(C)=C1C(=O)Nc1ccccc1OC (stereo not drawn),-0.99%
2,CCn1cc(C(=O)OCC(=O)c2ccc(C)cc2)c(=O)c2ccc(C)nc21,1.84%
3,COCc1c(C)cc(C)c(/C=N/O)c1C,3.42%
4,COC(=O)C1=C(N)Oc2c(oc(CO)cc2=O)C1c1ccc(C(=O)OC)cc1 (stereo not drawn),4.97%
5,Cc1cccc(-n2nc3c(c2NC(=O)c2ccco2)CS(=O)(=O)C3)c1C,2.21%
6,CC(C)CNS(=O)(=O)c1ccc(CCC(=O)NC(C)C)cc1,1.27%
7,CCC(C)NC(=O)Cn1cc2c(n1)-c1c(oc(C(=O)N3CCOCC3)c1C)CC2 (stereo not drawn),0.616%
8,CC1(C)C(c2ccco2)=[N+]([O-])C(C)(C)N1O,-1.6%
9,Oc1ccccc1CN1CCCCCCC1,-1.21%
10,CC(=O)c1ccc(NC(=O)c2scc3c2CCCC3)cc1,3.06%
11,CCCNC(=O)C(C)n1nc(C)n2c(cc3sccc32)c1=O (stereo not drawn),-11.1%
12,CC(C)CC(NC(=O)c1ccc(N(C)C)cc1)C(=O)NCC#N (stereo not drawn),-7.58%
13,CCN1CCCC1CNC(=O)c1ccc2c(Cl)c3c(nc2c1)CCCC3 (stereo not drawn),-2.45%
14,CCN(CC)C(=O)C1CCCN(C2CCN(Cc3ccccc3)CC2)C1 (stereo not drawn),1.57%
15,COc1ccc(Cl)cc1C(=O)Nc1c2c(nn1-c1ccc(C)cc1)CS(=O)(=O)C2,-1.75%
16,Cc1ccc(NC(=O)c2cc(F)c(Cl)nc2Cl)cc1C,1.93%
17,COc1ccc(N(CC(=O)Nc2cccc(Cl)c2C)S(C)(=O)=O)c(OC)c1,-5.23%
18,COc1ccc(Cc2c(C)nc3ccc(OC)cc3c2Cl)cc1,-0.158%
19,COc1ccc(NC(=O)c2c(NC(=O)CNCc3ccccc3)sc3c2CCC3)cc1,-14.3%
20,CCOc1ccccc1/C=c1\sc2nc(-c3ccccc3C)nn2c1=O,0.561%
21,COc1ccccc1/N=C1\SC(C(=O)Nc2ccccc2)CC(=O)N1C (stereo not drawn),5.31%

row,Structure (SMILES),% Inhibition @ 10 uM
1,COc1ccc(C2CC(c3ccc(OC(F)F)cc3)n3nnnc3N2)cc1 (stereo not drawn),0.0842%
2,COc1ccc(-c2nc3scc(CCNC(=O)c4ccc(C(C)(C)C)cc4)n3n2)cc1,7.61%
3,Cc1cc([N+](=O)[O-])ccc1NC(=O)C(c1ccccc1)c1ccccc1,0.98%
4,COc1ccc(-c2c3c(nn2-c2ccccc2)CC(C)(C)CC3=O)cc1,0.275%
5,CCC(C)c1ccc(C(=O)N[C@@H](CC(C)C)C(=O)NCC#N)cc1 (stereo partly drawn),-6.46%
6,Cn1c2c(c(=O)n(C)c1=O)C1(C(=O)Nc3ccc(Br)cc31)C(C#N)=C(N)O2 (stereo not drawn),1.64%
7,OC1=C2Sc3ccccc3N=C2CCC1,3.25%
8,N#CCNC(=O)[C@H](CC1CCCCC1)NC(=O)C1=CCCCC1,-1.83%
9,Cc1ccc(OCCCCCCN2CCNCC2)c(Br)c1,4.57%
10,Cc1ccc(C(=O)NC2CCCCCC2)o1,-1.63%
11,Cc1ccc(N2CC(C(=O)O)CC2=O)cc1C (stereo not drawn),5.77%
12,CC(=O)c1c(C)oc2c1cc(NS(=O)(=O)c1ccccc1)c1ccccc12,-2.55%
13,CCCn1c(SCC(C)C)nc2c1c(=O)[nH]c(=O)n2C,-6.7%
14,CCOC(=O)N1CCN(Cc2nc3c(c(=O)[nH]c(=O)n3C)n2CCCc2ccccc2)CC1,-2.92%
15,COc1cccc(Cn2c(=O)n(C(C)C)c(=O)c3oc4ccccc4c32)c1,1.91%
16,CC(C)CC(=O)Nc1nn2c(COc3ccccc3)nnc2s1,16.2%
17,Cc1ccc(-n2cc(C(C)(C)O)nn2)cc1,-4.04%
18,CN1CCC(c2ccc3c(c2)CSc2sccc2C3=O)CC1,-0.519%
19,COC(=O)C1=C(C)NC(=O)CC1c1ccccc1OCc1ccccc1 (stereo not drawn),-4.77%
20,CCOC(=O)C1=C(CN2CCN(C)CC2)NC(=O)NC1c1cccc(OC)c1OC (stereo not drawn),3.75%
21,CC(=O)c1cccc(NS(=O)(=O)c2c(Cl)cccc2Cl)c1,0.161%

row,Structure (SMILES),% Inhibition @ 10 uM
1,O=[N+]([O-])c1ccc(-c2nnc(-c3ccc([N+](=O)[O-])cc3)o2)cc1,-4.01%
2,COc1ccc(CNC(=O)C(C)n2nc(C)c3c(C)n(-c4ccc(C)cc4)nc3c2=O)cc1OC (stereo not drawn),-0.307%
3,COc1ccc2[nH]c3c(=O)n(CCCCCC(=O)N4CCC(C(N)=O)CC4)c(=S)[nH]c3c2c1,12.8%
4,Cc1ccccc1C1CC(=O)NC2=C1C(=O)CC(c1ccc(F)cc1)C2 (stereo not drawn),-2.24%
5,CCc1ccc(C(=O)N[C@@H](CC(C)C)C(=O)NCC#N)cc1,1.71%
6,Cc1nc(C(=O)Nc2ccccc2F)c(C(=O)NC(C)C)nc1C,0.35%
7,CC(C)C(NS(=O)(=O)c1cccc2nsnc12)C(=O)N1CCCCC1 (stereo not drawn),-0.465%
8,CC(=O)CC(c1ccc(O)cc1)c1c(O)oc2ccccc2c1=O (stereo not drawn),3.7%
9,CCc1ccccc1NC(=O)COc1ccc([N+](=O)[O-])cc1,-1.32%
10,COc1ccc(CCn2c(C)cc3c(c2=O)C(c2ccc4c(c2)OCO4)C(C#N)=C(N)O3)cc1OC (stereo not drawn),-2.91%
11,S=c1n(CN2CCCCC2)c2ccccc2n1CN1CCCCC1,0.968%
12,CCOC(=O)c1c(NC(=O)COc2ccccc2Cl)sc(C(C)=O)c1C,-6.72%
13,C=CCN(CC=C)C(=O)c1nc2ccccc2s1,-0.469%
14,Cc1oc(-c2ccc(C(=O)NCc3ccccn3)cc2)nc1COc1ccccc1,-3.84%
15,C=CCN1C(=O)c2[nH]nc(-c3c(C)cc(C)cc3O)c2C1c1ccc(OCC)cc1 (stereo not drawn),-5.33%
16,O=C(c1ccc2nc(N3CCCCC3)sc2c1)N1CCC(Cc2ccccc2)CC1,4.22%
17,COc1ccc(-c2nocc2C#N)cc1,-2.35%
18,NC(=O)C1CCCN(Cc2cccc(Cl)c2)C1 (stereo not drawn),1.88%
19,Cc1cc(C)c(S(=O)(=O)N(CC(=O)N2CCC(C)CC2)Cc2ccccc2)c(C)c1,6.79%
20,Cc1c(CC(=O)NCc2ccccc2)c(=O)oc2cc(O)c(Cl)cc12,2.54%
21,Cc1ccc(CNC(=O)c2nnc(CS(=O)(=O)c3ccccc3)o2)cc1,-2.78%
